# Assay results published in PubChem BioAssay AID588453 (National Center for Advancing Translational Sciences (NCATS), 2011).
# In all, about 390,000 compounds went through this assay and about 4,000 (1%) were called active. The inconclusive results got no clear call from the source; some entries with a clear call stand among them for comparison. Calls follow the shape of the dose curve; as a rule, active = well fitted inhibition curve with a large enough effect; inconclusive = small, poorly fitted or top-dose-only effect; inactive = no such curve, though single readings can be large or run the other way. Potencies beside an inconclusive call are fits to weak or partial responses and may not hold up.
# Biological target: Thioredoxin reductase 1, cytoplasmic (Rattus norvegicus) (UniProt O89049)
# UniProt O89049, sequence (O89049 whole entry, looked up): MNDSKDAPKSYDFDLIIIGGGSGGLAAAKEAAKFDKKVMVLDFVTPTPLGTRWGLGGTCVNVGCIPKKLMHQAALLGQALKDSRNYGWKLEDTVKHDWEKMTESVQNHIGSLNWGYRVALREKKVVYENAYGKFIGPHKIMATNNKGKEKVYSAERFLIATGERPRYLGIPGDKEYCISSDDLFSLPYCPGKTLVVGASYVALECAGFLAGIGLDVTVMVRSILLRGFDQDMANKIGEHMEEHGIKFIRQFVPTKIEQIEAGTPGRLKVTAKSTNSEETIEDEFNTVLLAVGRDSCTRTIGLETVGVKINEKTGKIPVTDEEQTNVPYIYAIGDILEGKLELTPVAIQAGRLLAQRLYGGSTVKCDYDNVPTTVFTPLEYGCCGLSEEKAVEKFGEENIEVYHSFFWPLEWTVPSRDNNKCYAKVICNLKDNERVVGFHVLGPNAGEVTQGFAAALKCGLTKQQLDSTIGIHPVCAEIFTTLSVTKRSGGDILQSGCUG
# Assay: qHTS Assay for Inhibitors of Mammalian Selenoprotein Thioredoxin Reductase 1 (TrxR1): qHTS; also: nearly all actives have a fitted effect of over 65% in size
# Conditions: recombinant rTrxR1, NADPH fluorescence consumption, selenite substrate; series mostly up to 114 µM
# How it was run: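 Rat TrxR1 (90 nM in the dispensed reagent) was pre-reduced with 400 uM NADPH for 5 min at room temperature, then incubated with compound for 15 min. After 400 uM selenite was added, NADPH fluorescence (Ex 340/Em 450 nm) was followed for 8 min.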
# Potency is read from the fitted curve at half-maximal effect; tags tell the direction and shape of the fitted curve.
row,SMILES,Potency
1,NC(=O)c1ccc(-n2nnnc2SCC(=O)Nc2ccc(F)cc2)cc1,"inconclusive: 39.8 µM [inhibitor, single point]"
2,O=C1C(Nc2ccccc2)=CC(c2ccc(Br)cc2)N1c1ccccc1 (configuration not stated),"inconclusive: 79.4 µM [inhibitor, partial curve]"
3,CCc1ccc(C2C(C#N)=C(N)C(C#N)(C#N)C3=CCC(C(C)(C)C)CC32)cc1 (configuration not stated),"inconclusive: 20 µM [inhibitor, full curve]"
4,COc1ccccc1C(C[N+](=O)[O-])c1c(N)n(C)c(=O)n(C)c1=O (configuration not stated),"inconclusive: 89.1 µM [inhibitor, single point]"
5,CCn1c2ccccc2c2cc(NC(=O)CSc3nnc(C4CC4)n3Cc3ccco3)ccc21,"inconclusive: 44.7 µM [inhibitor, partial curve]"
6,O=C(/C=C/c1ccco1)N1CCN(S(=O)(=O)c2cccs2)CC1,"inconclusive: 20 µM [inhibitor, full curve]"
7,Cc1ccc(-c2nc(CS(=O)CC(=O)N3CCN(c4ccc(F)cc4)CC3)c(C)o2)cc1 (configuration not stated),"inconclusive: 89.1 µM [inhibitor, single point]"
8,CCOC(=O)C1=C(C)N(c2ccccc2)C(=O)/C1=C\c1ccc(O)c(OC)c1,"inconclusive: 89.1 µM [inhibitor, single point]"
9,COC(=O)c1ccc(-c2sc3nc(N4CCOCC4)c4c(c3c2N)CCCC4)o1,inactive
10,C=C(Br)COC(c1ccco1)[C@H](Cc1ccccc1)NC(=O)OC(C)(C)C (some centres not stated),"inconclusive: 50.1 µM [inhibitor, partial curve]"
11,Cc1cccc(Sc2ccc([N+](=O)[O-])cc2[N+](=O)[O-])n1,inactive
12,c1ccc(Cn2nnnc2-c2ccco2)cc1,"inconclusive: 39.8 µM [inhibitor, single point]"
13,CC1(C)Cc2c(ccc3ccccc23)/C(=C/C#N)N1,"inconclusive: 44.7 µM [inhibitor, single point]"
14,O=C(CCc1nc(-c2ccccc2F)no1)Nc1cccnc1,"inconclusive: 89.1 µM [inhibitor, single point]"
15,COC(=O)c1c(NC(NC(=O)C(C)(C)C)C(Cl)(Cl)Cl)sc2c1CCC2 (configuration not stated),"inconclusive: 6.31 µM [inhibitor, partial curve]"
16,O=C(O)c1ccc2c(=O)n(Cc3ccccc3)c(SCc3ccc([N+](=O)[O-])cc3)nc2c1,"inconclusive: 70.8 µM [inhibitor, single point]"
17,COc1ccc(N2C(=O)CC(N3CCN(c4ccc(S(C)(=O)=O)cc4)CC3)C2=O)cc1 (configuration not stated),active: 15.8 µM
18,COc1ccc(-n2c(N)c(C(=O)NCc3ccco3)c3nc4ccccc4nc32)cc1,"inconclusive: 14.1 µM [inhibitor, partial curve]"
19,CCOc1ccc(CNC(=O)c2cnc3sc(N(CC)CC)nn3c2=O)cc1,inactive
20,CCc1cccc(C)c1NC(=O)c1ccc2c(c1)CCN2S(=O)(=O)CC,"inconclusive: 89.1 µM [inhibitor, single point]"
21,Cc1ccc2nc(N3CCOCC3)c(C=O)c(=O)n2c1,inactive

row,SMILES,Potency
1,COc1ccc(Cl)cc1NC(=O)NCCc1c(C)nn(C)c1C,inactive
2,O=C(CN1C(=O)c2ccccc2S1(=O)=O)Nc1ncc([N+](=O)[O-])s1,"inconclusive: 70.8 µM [inhibitor, partial curve]"
3,COc1ccc(/C=C2\SC(=S)N(CC(=O)OCC(=O)Nc3cc(Cl)cc(Cl)c3)C2=O)cc1,inactive
4,Cc1ccccc1NC(=S)Nc1ccccn1,"inconclusive: 79.4 µM [inhibitor, single point]"
5,CC1=CC(=NOC(=O)c2cccc([N+](=O)[O-])c2)C=C(C)C1=O,active: 10 µM
6,COc1c2ccoc2nc2c(OC)c(OCC(O)C(C)(C)O)ccc12 (configuration not stated),"inconclusive: 70.8 µM [inhibitor, single point]"
7,COc1nsnc1NS(=O)(=O)c1ccc(NC(=S)NC(=O)c2ccncc2)cc1,"inconclusive: 17.8 µM [inhibitor, full curve, poor fit]"
8,O=C1c2ccccc2NC(c2ccc(-c3ccccc3F)o2)N1O (configuration not stated),"inconclusive: 79.4 µM [inhibitor, partial curve]"
9,COc1ccccc1NC(=O)CSc1oc(-c2ccccc2)nc1S(=O)(=O)c1ccccc1,inactive
10,CC1=C(CC(=O)c2ccccc2)C(=O)c2ccccc2C1=O,inactive
11,Cn1cnnc1SC1c2cccc3cccc(c23)C1NS(=O)(=O)c1ccc(Cl)cc1 (configuration not stated),"inconclusive: 79.4 µM [inhibitor, single point]"
12,CCOc1ccc(-n2c(SCC(N)=O)nc3c(c2=O)SCC3)cc1,"inconclusive: 39.8 µM [inhibitor, partial curve]"
13,COc1ccc2[nH]c(CN3CCC(n4nccc4NC(=O)C4CC4)CC3)c(C)c2c1,"inconclusive: 89.1 µM [inhibitor, single point]"
14,O=C(Nc1ncn[nH]1)c1ccc(Cl)c(Cl)c1,"inconclusive: 79.4 µM [inhibitor, single point]"
15,O=C(COc1ccc(/C=N/NC(=O)C(=O)N2CCCCC2)cc1)Nc1ccccc1Cl,"inconclusive: 89.1 µM [inhibitor, single point]"
16,O=C1c2ccccc2NC(c2ccc(-c3ccc(C(F)(F)F)cc3)o2)N1O (configuration not stated),"inconclusive: 56.2 µM [inhibitor, partial curve]"
17,S=c1[nH]nc(COc2ccccc2)n1/N=C/c1cccnc1,"inconclusive: 89.1 µM [inhibitor, single point]"
18,COc1ccc(Cn2nnnc2CN2CCc3ccccc32)cc1,"inconclusive: 7.94 µM [inhibitor, partial curve, poor fit]"
19,COC(=O)N/N=C/c1ccc([N+](=O)[O-])o1,"inconclusive: 12.6 µM [inhibitor, full curve, poor fit]"
20,Cc1ccc(-c2nnc(Nc3ccc(O)cc3)c3ccccc23)cc1S(=O)(=O)N1CCCCC1,inactive
21,S=c1nccc(-c2ccc(Cl)cc2)[nH]1,"inconclusive: 7.94 µM [inhibitor, partial curve]"
